Biological target: hPAC1 short (hPAC1 with amino acid residues 89-109 deleted) (human), P41586
Test: cell-based or functional assay

Sequence of hPAC1 short (hPAC1 with amino acid residues 89-109 deleted) (human), P41586 (P41586 other isoform, or with tags, fused parts or gaps, form in doubt): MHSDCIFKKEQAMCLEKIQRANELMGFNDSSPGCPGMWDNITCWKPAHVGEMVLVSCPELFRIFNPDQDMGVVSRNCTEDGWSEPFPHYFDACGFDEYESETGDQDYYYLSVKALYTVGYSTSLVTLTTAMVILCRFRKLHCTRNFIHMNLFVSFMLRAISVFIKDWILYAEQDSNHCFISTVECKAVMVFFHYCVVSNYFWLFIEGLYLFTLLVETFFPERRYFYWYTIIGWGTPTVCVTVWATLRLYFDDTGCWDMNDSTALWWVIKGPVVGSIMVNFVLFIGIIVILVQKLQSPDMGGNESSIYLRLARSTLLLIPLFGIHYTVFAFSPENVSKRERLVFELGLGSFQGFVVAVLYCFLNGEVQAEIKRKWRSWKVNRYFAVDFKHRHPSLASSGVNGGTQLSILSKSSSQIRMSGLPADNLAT

B1: 29B (antibody, human IgG1, kappa)
heavy: QVQLVESGGGVVQPGRSLRLSCAASGFTFSRYAMHWVRQASGKGLEWVAVISYDGSNKYYADSVKGRFTISRDNSKNTLYLLMSSLRAEDTAVFYCARGYDILTGYPDYWGQGTLVTVSSASTKGPSVFPLAPSSKSTSGGTAALGCLVKDYFPEPVTVSWNSGALTSGVHTFPAVLQSSGLYSLSSVVTVPSSSLGTQTYICNVNHKPSNTKVDKKV[no letters for human IgG1 Fc with changes]
light: DIQLTQSPSFLSASVGDRVTITCRASQSIGRSLHWYQQKPGKAPKLLFKYASQSLSGVPSRFSGSGSGTEFTLTISSLQPEDFATYYCHQSSRLPFTFGPGTKVDIKRTVAAPSVFIFPPSDEQLKSGTASVVCLLNNFYPREAKVQWKVDNALQSGNSQESVTEQDSKDSTYSLSSTLTLSKADYEKHKVYACEVTHQGLSSPVTKSFNRGEC
short hPAC1 IC50 (cAMP assay): 4.7 nM

Reference: patent publication US20180362645A1
